Results taken from article PMC9911399, “Two distinct binding modes provide the RNA-binding protein RbFox with extraordinary sequence specificity”.
Residue numbers refer to the chain shown, from its start. The list shows a part of the results.

T1: RBFOX1 RRM RbFoxmut (Fox-RRM*) (Homo sapiens, UniProt Q9NWB1 109-208, R118D;E147R;N151S;E152T)
T1 sequence: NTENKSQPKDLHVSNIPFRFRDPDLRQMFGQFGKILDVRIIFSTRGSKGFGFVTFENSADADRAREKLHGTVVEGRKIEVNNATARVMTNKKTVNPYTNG

B1: AUCCCUA (DNA:RNA)
RNA: GGGAGACCGGAAUUCAGAUUGUCCAUCCCUAUUAAAUCCCGUCGUAGCCACCA
DNA 1: CAATCTGAATTCCGGTCTCCC
DNA 2: TGGTGGCTACGACGGGATT
B2: UCCAGAA (DNA:RNA)
RNA: B1 RNA with A25U, U26C, C28A, C29G, U30A
DNA 1: CAATCTGAATTCCGGTCTCCC
DNA 2: TGGTGGCTACGACGGGATT
B3: UAAGCCC (DNA:RNA)
RNA: B1 RNA with A25U, U26A, C27A, C28G, U30C, A31C
DNA 1: CAATCTGAATTCCGGTCTCCC
DNA 2: TGGTGGCTACGACGGGATT
B4: UCGUCUU (DNA:RNA)
RNA: B1 RNA with A25U, U26C, C27G, C28U, A31U
DNA 1: CAATCTGAATTCCGGTCTCCC
DNA 2: TGGTGGCTACGACGGGATT
B5: UUUUACC (DNA:RNA)
RNA: B1 RNA with A25U, C27U, C28U, C29A, U30C, A31C
DNA 1: CAATCTGAATTCCGGTCTCCC
DNA 2: TGGTGGCTACGACGGGATT
B6: UGCCGUA (DNA:RNA)
RNA: B1 RNA with A25U, U26G, C29G
DNA 1: CAATCTGAATTCCGGTCTCCC
DNA 2: TGGTGGCTACGACGGGATT
B7: CCGCACC (DNA:RNA)
RNA: B1 RNA with A25C, U26C, C27G, C29A, U30C, A31C
DNA 1: CAATCTGAATTCCGGTCTCCC
DNA 2: TGGTGGCTACGACGGGATT
B8: CUUAUUG (DNA:RNA)
RNA: B1 RNA with A25C, C27U, C28A, C29U, A31G
DNA 1: CAATCTGAATTCCGGTCTCCC
DNA 2: TGGTGGCTACGACGGGATT
B9: AUGAUCA (DNA:RNA)
RNA: B1 RNA with C27G, C28A, C29U, U30C
DNA 1: CAATCTGAATTCCGGTCTCCC
DNA 2: TGGTGGCTACGACGGGATT
B10: CUCCUCU (DNA:RNA)
RNA: B1 RNA with A25C, C29U, U30C, A31U
DNA 1: CAATCTGAATTCCGGTCTCCC
DNA 2: TGGTGGCTACGACGGGATT
B11: UCCACCC (DNA:RNA)
RNA: B1 RNA with A25U, U26C, C28A, U30C, A31C
DNA 1: CAATCTGAATTCCGGTCTCCC
DNA 2: TGGTGGCTACGACGGGATT
B12: UUUGCGU (DNA:RNA)
RNA: B1 RNA with A25U, C27U, C28G, U30G, A31U
DNA 1: CAATCTGAATTCCGGTCTCCC
DNA 2: TGGTGGCTACGACGGGATT
B13: AUACAGU (DNA:RNA)
RNA: B1 RNA with C27A, C29A, U30G, A31U
DNA 1: CAATCTGAATTCCGGTCTCCC
DNA 2: TGGTGGCTACGACGGGATT
B14: UCGGAUA (DNA:RNA)
RNA: B1 RNA with A25U, U26C, C27G, C28G, C29A
DNA 1: CAATCTGAATTCCGGTCTCCC
DNA 2: TGGTGGCTACGACGGGATT
B15: CUGACGG (DNA:RNA)
RNA: B1 RNA with A25C, C27G, C28A, U30G, A31G
DNA 1: CAATCTGAATTCCGGTCTCCC
DNA 2: TGGTGGCTACGACGGGATT
B16: AUUGUUU (DNA:RNA)
RNA: B1 RNA with C27U, C28G, C29U, A31U
DNA 1: CAATCTGAATTCCGGTCTCCC
DNA 2: TGGTGGCTACGACGGGATT
B17: GAGAGUG (DNA:RNA)
RNA: B1 RNA with A25G, U26A, C27G, C28A, C29G, A31G
DNA 1: CAATCTGAATTCCGGTCTCCC
DNA 2: TGGTGGCTACGACGGGATT
B18: GGCGUAA (DNA:RNA)
RNA: B1 RNA with A25G, U26G, C28G, C29U, U30A
DNA 1: CAATCTGAATTCCGGTCTCCC
DNA 2: TGGTGGCTACGACGGGATT
B19: UGAUACG (DNA:RNA)
RNA: GGGAGACCGGAAUUCAGAUUGUCCUGAUACGUUAAAUCCCGUCGUAGCCACCA
DNA 1: CAATCTGAATTCCGGTCTCCC
DNA 2: TGGTGGCTACGACGGGATT
B20: CUCUUGG (DNA:RNA)
RNA: B1 RNA with A25C, C28U, C29U, U30G, A31G
DNA 1: CAATCTGAATTCCGGTCTCCC
DNA 2: TGGTGGCTACGACGGGATT

Molecular target: T1, RBFOX1 RRM RbFoxmut (Fox-RRM*)
Experiment: EMSA; HiTS-Eq, 1 nM pool, 10 min; buffer printed only for the single-RNA assays: 10 mM Tris pH 7.5, 150 mM NaCl, 3.4 mM EDTA, 0.001% NP-40, 30 C
Conditions: tags: His6 N-terminal (pET28a); label: 5' 32P
Outline: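 A pool of RNA with 7 randomized nucleotides, 5′-radiolabelled and with DNA-annealed flanks, was equilibrated at 1 nM for 10 min in 50 µL with purified RbFox RRM, wild type or mutant, across increasing protein concentrations. Free RNA was separated by 8% native PAGE, excised, reverse-transcribed, barcoded by PCR and sequenced. Relative association constants were obtained from read-count changes of each RNA species versus the control reaction and normalised to the cognate motif.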

| Binder | binding signal |
| --- | --- |
| B1 | 0.113 KA relative to UGCAUGU |
| B2 | 0.0979 KA relative to UGCAUGU |
| B3 | 0.0727 KA relative to UGCAUGU |
| B4 | 0.0605 KA relative to UGCAUGU |
| B5 | 0.0856 KA relative to UGCAUGU |
| B6 | 0.131 KA relative to UGCAUGU |
| B7 | 0.0967 KA relative to UGCAUGU |
| B8 | 0.134 KA relative to UGCAUGU |
| B9 | 0.0928 KA relative to UGCAUGU |
| B10 | 0.11 KA relative to UGCAUGU |
| B11 | 0.0806 KA relative to UGCAUGU |
| B12 | 0.128 KA relative to UGCAUGU |
| B13 | 0.0795 KA relative to UGCAUGU |
| B14 | 0.0727 KA relative to UGCAUGU |
| B15 | 0.073 KA relative to UGCAUGU |
| B16 | 0.134 KA relative to UGCAUGU |
| B17 | 0.221 KA relative to UGCAUGU |
| B18 | 0.0907 KA relative to UGCAUGU |
| B19 | 0.159 KA relative to UGCAUGU |
| B20 | 0.089 KA relative to UGCAUGU |
